Results: paper PMC6032384 (International Journal of Molecular Sciences, 2018)
Like-named read-outs stand apart in the source and are kept apart here.

Key:
[1] = system: SCC-9 (human oral squamous cell carcinoma)
[2] = system: SCC-9 (human oral squamous cell carcinoma); assay: cells; conditions: SCC-9, 72 h

Compound	IC50 ([1]; SCC9, AB assay, 72 h) [nM]	Selectivity index (SI) ([1]; IC50[MRC5]/IC50[SCC-9])	Selectivity index (SI) ([1]; IC50[PBMC]/IC50[SCC-9])	IC50 [2] [nM]
Cc1c[nH]c(=O)[n-]c1=O.F[P-](F)(F)(F)(F)F.[Ru+2].c1ccc(-c2ccccn2)nc1.c1ccc(P(c2ccccc2)c2ccccc2)cc1.c1ccc(P(c2ccccc2)c2ccccc2)cc1 [CRT, [Ru(PPh3)2(Thy)(bipy)]PF6]	2400			
COc1cccc2c1C(=O)c1c(O)c3c(c(O)c1C2=O)C[C@@](O)(C(=O)CO)C[C@@H]3O[C@H]1C[C@H](N)[C@H](O)[C@H](C)O1 [DOX, Doxorubicin, reference compound]		3	10.2	500
